In article PMC3898958:
Numbering of substitutions follows the chain as printed. These are yes or no findings as the source states them, for the method shown. In cells and extracts the contact can be indirect. Some entries that bind do so weakly or less than the wild type. Where a sequence is shown, tags or fusion partners need not be part of it.

Protein sequences, listed by entry. Tags and fused reporters are not part of them. Lines headed by an entry give the natural chain unless they say otherwise; changes in a name come on top. Chains listed by the source or under a name are the forms on record and can include a tag or linker.
UniProt P40479: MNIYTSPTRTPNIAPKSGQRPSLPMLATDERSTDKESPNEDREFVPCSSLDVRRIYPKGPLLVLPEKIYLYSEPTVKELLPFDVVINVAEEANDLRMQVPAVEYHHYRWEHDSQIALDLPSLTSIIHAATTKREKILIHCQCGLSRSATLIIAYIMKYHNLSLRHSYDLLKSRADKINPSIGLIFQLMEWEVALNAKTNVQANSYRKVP
Recombinant Sdp1^IAYATA-GST (plasmid pETGEXCT) (P40479, form named): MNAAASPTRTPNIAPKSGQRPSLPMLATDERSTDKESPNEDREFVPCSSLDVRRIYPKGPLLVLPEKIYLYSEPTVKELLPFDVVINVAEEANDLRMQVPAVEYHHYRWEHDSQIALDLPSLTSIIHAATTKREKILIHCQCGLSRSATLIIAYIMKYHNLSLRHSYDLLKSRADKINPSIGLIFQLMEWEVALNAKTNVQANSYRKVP

T1: GST-Mlp1 (plasmid pEG(KG)-Mlp1) (S. cerevisiae) (UniProt P36005)
T1 sequence: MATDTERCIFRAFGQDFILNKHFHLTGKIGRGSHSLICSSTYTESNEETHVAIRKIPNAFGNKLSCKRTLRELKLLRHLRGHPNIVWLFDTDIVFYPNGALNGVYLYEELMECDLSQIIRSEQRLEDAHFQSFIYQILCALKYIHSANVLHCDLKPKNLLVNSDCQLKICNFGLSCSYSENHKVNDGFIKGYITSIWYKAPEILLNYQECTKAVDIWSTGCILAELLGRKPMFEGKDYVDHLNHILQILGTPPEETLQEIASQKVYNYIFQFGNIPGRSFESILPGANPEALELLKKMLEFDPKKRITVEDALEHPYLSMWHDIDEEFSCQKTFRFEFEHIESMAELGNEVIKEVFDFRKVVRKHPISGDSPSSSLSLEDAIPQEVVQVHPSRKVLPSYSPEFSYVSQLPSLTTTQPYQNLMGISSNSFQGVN

T2: GST-Slt2 (plasmid pEG(KG)-SLT2) (S. cerevisiae) (UniProt Q00772)
T2 sequence: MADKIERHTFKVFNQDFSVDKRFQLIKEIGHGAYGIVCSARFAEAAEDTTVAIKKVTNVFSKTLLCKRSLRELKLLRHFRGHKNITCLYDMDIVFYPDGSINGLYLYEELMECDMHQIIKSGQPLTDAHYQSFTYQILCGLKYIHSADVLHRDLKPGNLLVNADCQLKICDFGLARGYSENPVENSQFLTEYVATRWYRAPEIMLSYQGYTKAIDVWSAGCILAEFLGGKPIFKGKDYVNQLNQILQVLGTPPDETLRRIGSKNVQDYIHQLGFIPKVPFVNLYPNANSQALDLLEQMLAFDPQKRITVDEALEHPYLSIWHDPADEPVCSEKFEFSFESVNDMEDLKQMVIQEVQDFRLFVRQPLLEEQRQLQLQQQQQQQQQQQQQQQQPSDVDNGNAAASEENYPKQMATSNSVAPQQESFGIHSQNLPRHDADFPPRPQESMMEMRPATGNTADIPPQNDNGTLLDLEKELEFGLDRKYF

T3: Pmp1^C158S-GST (strain DP410) (S. pombe) (UniProt O13453)
T3 sequence: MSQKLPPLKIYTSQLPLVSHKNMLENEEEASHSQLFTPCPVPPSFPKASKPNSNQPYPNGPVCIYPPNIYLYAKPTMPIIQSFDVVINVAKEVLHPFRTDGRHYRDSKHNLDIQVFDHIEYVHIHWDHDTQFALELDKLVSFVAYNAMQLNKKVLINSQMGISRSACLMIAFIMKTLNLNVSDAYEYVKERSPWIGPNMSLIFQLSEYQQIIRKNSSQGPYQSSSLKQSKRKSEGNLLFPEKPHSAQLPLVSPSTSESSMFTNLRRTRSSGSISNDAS

T4: Pmp1^C158S-IAYATA-GST (strain DP430) (S. pombe) (UniProt O13453)
T4 sequence: T3 sequence with I10A, Y11A, T12A

B1: Recombinant Slt2-His (plasmid pET15B-Slt2-His) (enzyme, UniProt Q00772 1-484)
chain: T2 sequence
B2: Recombinant Mlp1-His (plasmid pET15B-Mlp1-His) (protein, UniProt P36005 1-433)
chain: T1 sequence
B3: Pmk1-HA6H (enzyme, UniProt Q92398 1-422)
chain: MDRRHRVYRVFNQEMYVEPNFKVVKELGQGAYGIVCAARNVASKDQEAVAIKKITNVFSKSILTKRALREIKLLIHFRNHRNITCIYDLDIINPYNFNEVYIYEELMEADLNAIIKSGQPLTDAHFQSFIYQILCGLKYIHSANVIHRDLKPGNLLVNADCELKICDFGLARGCSENPEENPGFMTEYVATRWYRAPEIMLSFSSYHKGIDVWSVGCILAELLGGTPLFKGKDFVHQLNLILHQLGTPDEETLSHISSSRAQEYVRSLPKQRPIPFETNFPKANPLALDLLAKLLAFDPNRRISVDDALEHPYLAVWHDPSDEPVCDSVFDFSFEYIEDANELRRVILDEVLNFRQKVRRRSHPTNPTVNIPQPAQTVPSNDNGSFNVSSSSSSQTSNKKRHDHSYNETAAIDHKSDDNRHN

What was measured:
[1] = target: T1, GST-Mlp1 (plasmid pEG(KG)-Mlp1) (S. cerevisiae); test: pull-down; in vivo binding assay: extracts of S. cerevisiae YPH499 co-expressing the GST fusion and Sdp1-Myc, lysis buffer lacking SDS and NP40, glutathione-Sepharose beads for two hours, blots with anti-Myc and anti-GST
[2] = target: T2, GST-Slt2 (plasmid pEG(KG)-SLT2) (S. cerevisiae); test: as above
[3] = target: Recombinant Sdp1-GST (plasmid pETGEXCT) (S. cerevisiae) (UniProt P40479); test: pull-down; in vitro binding assay: E. coli extracts with GST-fused Sdp1 mixed with E. coli extracts with the His-tagged protein, glutathione-Sepharose, blots with anti-polyHis and anti-GST
[4] = target: Recombinant Sdp1^IAYATA-GST (plasmid pETGEXCT) (S. cerevisiae) (UniProt P40479); test: as above
[5] = target: T3, Pmp1^C158S-GST (strain DP410) (S. pombe); test: pull-down; extracts of S. pombe strains with genomic Pmp1-GST fusions and Pmk1-HA6H, grown in YES to early-log phase; Pmp1-GST recovered on glutathione-agarose beads, extensive washes, blots with anti-HA and anti-GST
[6] = target: T4, Pmp1^C158S-IAYATA-GST (strain DP430) (S. pombe); test: as above

Molecule	binding [1]	binding [2]	binding [3]	binding [4]	further results
Sdp1^IAYATA-Myc (plasmid YCplac22Sdp1^IAYATAm) (from UniProt P40479 1-209) (enzyme)	no binding	no binding			
Sdp1-Myc (plasmid YCplac22Sdp1m) (from UniProt P40479 1-209) (enzyme)	binds	binds			
B1			binds	no binding	
B2			binds	no binding	
B3					binding [5]: binds; binding [6]: no binding
